# Measured values taken from the supplement of paper PMC7826260.
# The list shows a part of the results. Cleavage of a single-stranded DNA pool by Rep nickase domains was read by sequencing (3 µM enzyme, 1 h, 37 °C); shown is the middle of each 90-letter strand. Numbers give uncut DNA relative to the enzyme-free pool, as log2; strong cutting gives strongly negative numbers. There is no active / inactive call. Because reads are shares of a total, they shift together, so uncut sequences can rise above 0 when many others are cut.
# What was measured:
# Experiment in all cases: uncleaved DNA left, log2 of reads against the no-enzyme library (log2 ratio); higher = less cleavage (more negative = more Rep cleavage of the k-mer); sequences stand for … in CTCGTCCG…ACCGGAGA
# [1] = test system: T1, Rep nickase domain of Muscovy duck circovirus
# T1 sequence (residues 1-111 of Rep, tag left off): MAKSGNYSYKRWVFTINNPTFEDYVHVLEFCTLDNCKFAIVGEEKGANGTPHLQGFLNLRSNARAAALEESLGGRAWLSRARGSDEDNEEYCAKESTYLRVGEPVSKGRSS
# Description: (§1)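 A pool of 90-nt single-stranded DNAs with seven random bases just before the constant AC of the nick site (name = the seven bases) was cut by 3 µM recombinant His6-SUMO-tagged Rep nickase domain (300 nM DNA, 50 mM HEPES pH 8.0, 50 mM NaCl, 1 mM MnCl2, 1 h, 37 °C, three replicates). Uncut DNA was amplified and sequenced.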
# [2] = test system: T2, Rep nickase domain of banana bunchy top virus
# T2 sequence (residues 1-94 of Rep, tag left off): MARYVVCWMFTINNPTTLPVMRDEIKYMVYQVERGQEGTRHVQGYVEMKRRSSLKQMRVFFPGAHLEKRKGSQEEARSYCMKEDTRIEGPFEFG
# Description: as §1
# [3] = test system: T3, Rep nickase domain of cabbage leaf curl virus
# T3 sequence (residues 1-116 of Rep, tag left off): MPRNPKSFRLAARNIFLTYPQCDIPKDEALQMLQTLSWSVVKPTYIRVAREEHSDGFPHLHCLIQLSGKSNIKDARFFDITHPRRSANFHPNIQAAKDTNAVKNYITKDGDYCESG
# Description: as §1
# [4] = test system: T4, Rep nickase domain of chickpea chlorotic dwarf virus
# T4 sequence (residues 1-124 of Rep, tag left off): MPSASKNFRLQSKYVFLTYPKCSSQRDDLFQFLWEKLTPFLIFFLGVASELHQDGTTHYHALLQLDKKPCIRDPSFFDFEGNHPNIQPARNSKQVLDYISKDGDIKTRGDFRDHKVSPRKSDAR
# Description: as §1
# [5] = test system: T5, Rep nickase domain of faba bean necrotic yellows virus
# T5 sequence (residues 1-98 of Rep, tag left off): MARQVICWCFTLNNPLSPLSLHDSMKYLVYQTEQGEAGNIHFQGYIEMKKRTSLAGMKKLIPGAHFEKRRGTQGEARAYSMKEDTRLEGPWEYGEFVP
# Description: as §1
# [6] = test system: T6, Rep nickase domain of maize striate mosaic virus
# T6 sequence (residues 1-117 of Rep, tag left off): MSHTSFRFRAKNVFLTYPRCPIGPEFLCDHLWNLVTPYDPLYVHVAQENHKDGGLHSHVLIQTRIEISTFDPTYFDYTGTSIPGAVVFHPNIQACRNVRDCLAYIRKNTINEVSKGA
# Description: as §1
# [7] = test system: T7, Rep nickase domain of porcine circovirus 2
# T7 sequence (residues 2-116 of Rep, tag left off): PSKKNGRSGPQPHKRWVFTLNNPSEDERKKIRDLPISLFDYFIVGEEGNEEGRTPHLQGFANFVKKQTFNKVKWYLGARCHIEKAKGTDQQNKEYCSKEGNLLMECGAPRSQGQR
# Description: as §1
# [8] = test system: T8, Rep nickase domain of tomato golden mosaic virus
# T8 sequence (residues 1-124 of Rep, tag left off): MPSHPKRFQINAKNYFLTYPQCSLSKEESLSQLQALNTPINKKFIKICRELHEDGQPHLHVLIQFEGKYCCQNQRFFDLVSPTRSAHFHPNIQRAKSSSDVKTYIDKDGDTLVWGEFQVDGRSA
# Description: as §1
# [9] = test system: T9, Rep nickase domain of tomato yellow leaf curl virus
# T9 sequence (residues 1-136 of Rep, tag left off): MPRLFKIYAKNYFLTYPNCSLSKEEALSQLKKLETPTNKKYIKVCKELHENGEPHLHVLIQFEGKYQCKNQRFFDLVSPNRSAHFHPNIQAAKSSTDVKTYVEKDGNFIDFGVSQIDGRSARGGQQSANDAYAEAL
# Description: as §1
# [10] = test system: T10, Rep nickase domain of wheat dwarf virus
# T10 sequence (residues 1-137 of Rep, tag left off): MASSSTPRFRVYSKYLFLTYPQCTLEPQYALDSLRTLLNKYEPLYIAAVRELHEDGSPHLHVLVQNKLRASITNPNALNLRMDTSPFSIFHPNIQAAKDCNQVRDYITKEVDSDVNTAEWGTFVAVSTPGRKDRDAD
# Description: as §1
Sequence,uncleaved DNA left (log2) [1],uncleaved DNA left (log2) [2],uncleaved DNA left (log2) [3],uncleaved DNA left (log2) [4],uncleaved DNA left (log2) [5],uncleaved DNA left (log2) [6],uncleaved DNA left (log2) [7],uncleaved DNA left (log2) [8],uncleaved DNA left (log2) [9],uncleaved DNA left (log2) [10]
TTGAAAG,0.00351,-0.0153,-0.751,-0.778,0.042,-1.19,0.186,0.0379,0.0479,0.00347
ACGCAGA,0.0694,0.0265,-0.264,-0.13,0.2,-0.811,0.246,0.124,0.0221,0.0295
CTATTCC,0.0149,0.104,0.0188,-0.0645,0.0652,-0.653,0.0966,-0.0359,0.114,0.00144
GCTAAGC,-0.0701,0.0303,-0.108,-0.0739,-0.0211,-0.726,0.0425,-0.0574,-0.122,-0.0475
GGGGGAC,-0.0297,0.046,0.802,1.74,-0.0915,2.26,0.284,0.131,-0.0306,0.0365
CTGGGCC,-0.0132,-0.0993,0.103,0.467,-0.133,0.152,0.0966,-0.0403,-0.0327,-0.041
ATAGTTA,-0.0477,-0.14,-0.146,-1.29,0.074,-0.456,-0.12,0.0566,-0.065,0.0115
CAAGTTA,-0.138,-0.0266,-0.206,-1.57,-0.0888,-0.513,-0.156,-0.0645,-0.0512,-0.0383
TTGTTAC,-2.91,-0.221,-0.465,-2.01,0.00789,-0.381,-2.74,-0.139,-0.00965,-0.337
AGATCAA,-0.0255,0.0737,0.491,0.838,-0.0381,0.646,-0.0289,0.00973,-0.0171,0.129
ACTCCTC,-0.068,-0.0356,-0.0554,0.231,0.0228,0.172,-0.0879,-0.0344,-0.107,-0.0631
CTTTATG,-0.0417,-0.0443,-0.732,-0.498,0.0516,-1.17,0.0473,-0.187,-0.0528,-0.0884
TTGGAGG,0.23,0.0088,0.473,1.1,0.212,1,0.146,0.128,0.0627,-0.115
GGTTAAG,0.0958,-0.0599,-0.219,-0.0431,0.0357,-0.516,0.0966,0.0773,0.003,-0.0491
AGTCTAC,0.042,-0.201,-0.141,-1.31,-0.0221,-0.0747,-0.195,-0.107,0.00393,-0.0238
GGCCATC,0.117,0.139,0.739,1.69,0.0404,2.12,0.187,-0.0114,0.122,0.115
ATACCTC,-0.00936,-0.112,0.096,-0.115,0.0419,0.175,-0.091,-0.0114,-0.121,-0.129
CTGAGCT,0.222,0.109,0.0198,-0.116,0.134,-0.462,0.147,0.181,0.127,0.12
TCGATTA,-0.0764,-0.119,-0.155,-0.968,0.00604,-0.355,-0.235,-0.14,-0.159,-0.033
TGAAAAT,0.0519,0.159,0.334,-0.00987,0.0993,0.164,-0.168,0.104,0.175,0.258
CCATTGG,-0.256,-0.234,-0.806,-0.374,-0.0871,-1.26,0.0535,-0.169,0.00871,-0.256
AGGAGAC,0.101,0.0606,0.562,1.54,0.0667,1.46,0.255,0.0834,0.0583,0.15
GCGGGGG,0.000869,-0.0407,0.245,0.691,0.0393,0.939,0.175,-0.0128,-0.0597,0.00985
CGTATCA,0.152,0.13,0.466,0.294,0.0302,0.689,0.0668,0.0552,0.185,0.249
TAGTTTT,-3.61,-3.73,-3.23,-3.07,-3.65,-1.33,-4.45,-2.18,0.108,-2.34
GAAGCTG,0.0808,0.0819,0.371,1.55,0.0332,1.74,0.209,0.0867,-0.115,0.12
GCATCGT,0.0168,0.0288,-0.41,-0.534,0.0141,-0.921,0.00233,0.0749,0.0789,-0.0434
TCGCTTA,0.0659,-0.0648,0.118,-1.07,-0.023,-0.382,-0.176,0.00132,-0.0103,-0.0799
ATGCGCC,-0.0134,-0.151,-0.608,-0.644,-0.0657,-0.993,-0.0674,-0.22,-0.0651,-0.213
AGCAAAT,0.198,0.166,0.084,0.241,0.000626,0.463,-0.0959,0.0104,0.108,0.128
